{
  "source": "PubChem BioAssay AID504332",
  "about": "(National Center for Advancing Translational Sciences (NCATS), 2011)",
  "note": "The whole screen tested about 350,000 compounds, of which about 31,000 (8.9%) were called active. The shares of active, inactive and inconclusive entries below differ from those in the screen. Calls come from the whole dose curve; as a rule, active = well fitted inhibition curve with a large enough effect; inconclusive = small, poorly fitted or top-dose-only effect; inactive = no such curve, though single readings can be large or run the other way. Where the call is inconclusive, the potency comes from a doubtful curve fit. % is set by controls: 0 for no effect and ±100 for the full control effect; potency is the fitted concentration of half-maximal effect; tags give direction and shape of the fitted curve.",
  "data": [
    {"target": "Histone-lysine N-methyltransferase EHMT2 (Homo sapiens) (UniProt Q96KQ7)", "sequence (Q96KQ7 whole entry, looked up)": "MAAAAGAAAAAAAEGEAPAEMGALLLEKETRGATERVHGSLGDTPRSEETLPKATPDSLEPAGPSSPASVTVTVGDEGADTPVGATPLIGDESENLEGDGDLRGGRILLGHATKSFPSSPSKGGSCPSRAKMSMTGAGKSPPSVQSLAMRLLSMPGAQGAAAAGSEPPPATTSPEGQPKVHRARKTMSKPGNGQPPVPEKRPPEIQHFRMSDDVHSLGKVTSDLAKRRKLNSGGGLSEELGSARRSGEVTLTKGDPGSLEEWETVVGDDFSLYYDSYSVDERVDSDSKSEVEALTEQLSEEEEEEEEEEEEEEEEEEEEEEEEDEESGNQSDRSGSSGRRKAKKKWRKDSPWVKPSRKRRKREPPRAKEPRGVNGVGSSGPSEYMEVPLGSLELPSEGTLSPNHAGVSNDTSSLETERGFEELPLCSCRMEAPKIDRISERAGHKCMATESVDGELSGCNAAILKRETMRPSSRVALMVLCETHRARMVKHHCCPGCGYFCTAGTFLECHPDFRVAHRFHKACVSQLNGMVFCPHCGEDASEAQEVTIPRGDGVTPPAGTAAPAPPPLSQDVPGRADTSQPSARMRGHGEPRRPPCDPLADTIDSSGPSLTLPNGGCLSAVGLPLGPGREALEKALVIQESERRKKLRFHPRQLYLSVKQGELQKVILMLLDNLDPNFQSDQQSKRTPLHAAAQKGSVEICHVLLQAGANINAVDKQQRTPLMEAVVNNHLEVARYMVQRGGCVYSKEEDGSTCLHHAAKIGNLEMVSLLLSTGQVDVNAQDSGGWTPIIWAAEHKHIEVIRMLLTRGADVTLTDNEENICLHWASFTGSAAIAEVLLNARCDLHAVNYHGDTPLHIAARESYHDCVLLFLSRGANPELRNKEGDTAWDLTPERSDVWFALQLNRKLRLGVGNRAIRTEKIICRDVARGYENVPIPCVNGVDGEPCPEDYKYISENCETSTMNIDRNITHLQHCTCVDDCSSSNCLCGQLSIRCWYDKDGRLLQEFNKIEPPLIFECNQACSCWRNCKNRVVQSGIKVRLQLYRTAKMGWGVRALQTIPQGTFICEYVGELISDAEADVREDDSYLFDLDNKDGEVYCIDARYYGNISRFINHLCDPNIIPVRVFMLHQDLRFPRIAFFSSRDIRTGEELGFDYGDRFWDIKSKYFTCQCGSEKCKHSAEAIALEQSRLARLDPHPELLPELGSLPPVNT", "test": "qHTS Assay for Inhibitors of Histone Lysine Methyltransferase G9a; note: nearly all actives have a fitted effect of over 75% in size", "conditions": "G9a H3K9 monomethylation, AlphaScreen, 2 h; activity, negative = inhibition: at 59 µM (top of the series) unless noted", "summary_of_the_method": "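AlphaScreen detection with an anti-monomethyl H3K9 antibody quantified product after a 2 h room-temperature reaction containing 500 nM biotinylated H3K9 peptide, 20 µM SAM and 20 nM enzyme, which had been preincubated 15 min with compound.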", "values": [
      {"smiles": "NC(=O)CSc1nnc(CNc2ccc(F)cc2)n1CC1CCCO1", "note": "(stereo unspecified)", "Potency": "inconclusive: 100 µM [inhibitor, single point]"},
      {"smiles": "CN(C(=O)c1sc2nc(N3CCOCC3)c3c(c2c1N)CCCC3)c1ccccc1", "Potency": "inconclusive: 70.8 µM [inhibitor, single point]"},
      {"smiles": "Cc1nnc(SCC(=O)N2CCN(C(=O)c3ccco3)CC2)n1-c1ccccc1", "Potency": "inconclusive: 70.8 µM [inhibitor, partial curve]"},
      {"smiles": "COc1ccc(OCC(=O)NC(=S)N2CCCc3ccccc32)cc1", "Potency": "inconclusive: 3.55 µM [inhibitor, single point]"},
      {"smiles": "O=C(NCc1ccccc1Cl)C1CCCN(C(=O)c2cnn(-c3ccccc3)c2-n2cccc2)C1", "note": "(stereo unspecified)", "activity, negative = inhibition": "inactive: 4.49%"},
      {"smiles": "CC1CN(Cc2csc(-c3ccc(Cl)cc3)n2)CC(C)O1", "note": "(stereo unspecified)", "Potency": "active: 39.8 µM"},
      {"smiles": "Cc1ccc(CCNC(=O)c2cccc(NC3=NC4CS(=O)(=O)CC4S3)c2)cc1", "note": "(stereo unspecified)", "Potency": "inconclusive: 79.4 µM [inhibitor, single point]"},
      {"smiles": "Cc1cccc(C)c1-n1ncc(C(=O)Nc2ccc3c(c2)OCO3)c1C1CCN(C(=O)OC(C)(C)C)CC1", "Potency": "inconclusive: 22.4 µM [inhibitor, partial curve, poor fit]"},
      {"smiles": "Clc1ccc(CNc2ncccn2)cc1", "activity, negative = inhibition": "inactive: -6.47% [at 102 µM]"},
      {"smiles": "Cc1cc(-c2ccccc2)nc2cc(C(=O)NCc3ccco3)nn12", "Potency": "active: 50.1 µM"},
      {"smiles": "COC(=O)c1sc(NC(=S)NC(=O)c2cc(OC)c(OC)c(OC)c2)nc1C", "Potency": "active: 70.8 µM"},
      {"smiles": "CCOCCCn1c(SCC(=O)Nc2oc(C)c3c(C)n[nH]c(=O)c23)nnc1-c1ccncc1", "Potency": "active: 35.5 µM"},
      {"smiles": "O=C(CSc1nnc(-c2ccc(O)cc2)o1)c1ccc(Br)cc1", "activity, negative = inhibition": "inactive: -5.69%"},
      {"smiles": "COc1cccc(C(=O)NCCS(=O)(=O)NCCc2ccc(OC)c(OC)c2)c1", "Potency": "inconclusive: 89.1 µM [inhibitor, single point]"},
      {"smiles": "Cc1cc(Cl)c2oc(C(=O)NC(C)c3ccncn3)c(C)c2c1", "note": "(stereo unspecified)", "activity, negative = inhibition": "inactive: -0.418% [at 102 µM]"},
      {"smiles": "COC(=O)c1cc(NC(=O)CC2SC(=Nc3ccccc3)N(CCc3c[nH]c4ccccc34)C2=O)cc(C(=O)OC)c1", "note": "(stereo unspecified)", "Potency": "inconclusive: 89.1 µM [inhibitor, partial curve, poor fit]"},
      {"smiles": "CCOc1ccc(CCN2C(=O)C(=O)N([C@H](CCCN(C)Cc3ccccc3)CNCc3ccccc3)C[C@@H]2C(C)C)cc1", "activity, negative = inhibition": "inactive: -21.2%"},
      {"smiles": "Cc1c(C(=O)O)cnc2c([N+](=O)[O-])cnn12", "Potency": "active: 56.2 µM"},
      {"smiles": "COc1ccc(-n2c(Cc3cccn3C)nnc2SCC(=O)Nc2ccc3c(c2)OCO3)cc1", "Potency": "active: 50.1 µM"},
      {"smiles": "CN1CCN(c2ncc3nc(-c4ccccc4)c(=O)n(C)c3n2)CC1", "activity, negative = inhibition": "inactive: 6.61% [at 0.501 µM]"},
      {"smiles": "CS(=O)(=O)Nc1ccc(OCc2ccccc2)cc1", "activity, negative = inhibition": "inactive: 1.79% [at 102 µM]"},
      {"smiles": "CCOc1cc(OCC)cc(C(=O)NC(=S)Nc2cccc(C(F)(F)F)c2)c1", "activity, negative = inhibition": "inactive: -3.29%"},
      {"smiles": "Cn1c(COc2ccc3ccccc3c2)nnc1SCC(=O)O", "Potency": "inconclusive: 79.4 µM [inhibitor, partial curve, poor fit]"},
      {"smiles": "CN(C)c1ccc(Nc2c3c4c(cccc4n(C)c2=O)C(=O)c2ccccc2-3)cc1", "Potency": "inconclusive: 2 µM [inhibitor, full curve, poor fit]"},
      {"smiles": "Cc1c(NC(=S)/C=C2\\N(C)c3ccccc3C2(C)C)c(=O)n(-c2ccccc2)n1C", "Potency": "active: 31.6 µM"},
      {"smiles": "CN1C(=O)C(Cl)(Cl)C(=O)c2ccccc21", "Potency": "active: 1 µM"},
      {"smiles": "O=C(Nc1cccc2ccccc12)c1ccccc1NS(=O)(=O)c1cccc2cccnc12", "Potency": "inconclusive: 3.16 µM [inhibitor, single point]"},
      {"smiles": "CCCCC(=O)Nc1ccc(C(=O)Nc2ccc(S(=O)(=O)Nc3ccc(C)cc3)cc2)cc1", "Potency": "inconclusive: 7.94 µM [inhibitor, single point]"},
      {"smiles": "CC(=O)Nc1ccc(S(=O)(=O)Nc2nnc(C3CCCCC3)s2)cc1", "Potency": "inconclusive: 6.31 µM [inhibitor, single point]"},
      {"smiles": "CCOC(=O)C(C)Oc1ccc2c(C)cc(=O)oc2c1C(C)=O", "note": "(stereo unspecified)", "Potency": "inconclusive: 39.8 µM [inhibitor, single point]"},
      {"smiles": "CC(C)C[C@H](N)CSSC[C@@H](N)CC(C)C", "Potency": "active: 15.8 µM"},
      {"smiles": "CCOc1ccccc1NC(=O)N1CCc2cc(S(=O)(=O)N3CCC(C)CC3)ccc21", "activity, negative = inhibition": "inactive: -18.6%"},
      {"smiles": "CCCCCSc1nc2sc3c(c2c(=O)n1-c1ccccc1)CCN(C(C)=O)C3", "Potency": "inconclusive: 28.2 µM [inhibitor, partial curve, poor fit]"},
      {"smiles": "COC(=O)c1c(-c2cccs2)csc1NC(=O)COc1c(C)ccc(C)c1C", "Potency": "active: 1.41 µM"},
      {"smiles": "CC(C)(C)C(=O)Nc1nc(=S)ss1", "Potency": "inconclusive: 1.41 µM [inhibitor, full curve, poor fit]"},
      {"smiles": "COc1cccc(/C=N/n2c(=S)n(C)c3cc(C)c(C)cc32)c1OC", "Potency": "inconclusive: 31.6 µM [inhibitor, single point]"},
      {"smiles": "CCOC(=O)C(C)(C)N(Cc1ccc(C)cc1)S(=O)(=O)c1ccc(Cl)c([N+](=O)[O-])c1", "Potency": "inconclusive: 39.8 µM [inhibitor, single point]"},
      {"smiles": "O=C(Nc1ccccc1C(=O)N/N=C/c1ccco1)c1ccccc1Cl", "activity, negative = inhibition": "inactive: 48.8% [at 102 µM]"},
      {"smiles": "O=C1NC2(CCCCC2)Oc2ccccc21", "activity, negative = inhibition": "inactive: -0.185% [at 12.7 µM]"},
      {"smiles": "COc1ccc(CCNC(=O)CCCCCNC(=O)N2CCn3c2nc2ccccc23)cc1OC", "activity, negative = inhibition": "inactive: 50.3% [at 102 µM]"},
      {"smiles": "CCN1C(=S)SC(=O)C1=C1C=C(C)N(CCOC)C(C)=C1", "Potency": "inconclusive: 17.8 µM [inhibitor, partial curve, poor fit]"},
      {"smiles": "CCCN(CC#CC(O)(c1ccccc1)c1cccnc1)CCC", "note": "(stereo unspecified)", "Potency": "active: 22.4 µM"},
      {"smiles": "COc1cc2ccc(=O)oc2c(OC)c1OC", "activity, negative = inhibition": "inactive: -24.7% [at 2.33 µM]"},
      {"smiles": "COc1ccccc1N(C(=O)c1snc(C(N)=O)c1N)C(C(=O)NC1CCCC1)c1ccc2ncccc2c1", "note": "(stereo unspecified)", "activity, negative = inhibition": "inactive: -0.453% [at 102 µM]"},
      {"smiles": "CCOC(=O)C1CCCN(C(=O)c2sc3nc(C)nc(N4CCOCC4)c3c2C)C1", "note": "(stereo unspecified)", "Potency": "inconclusive: 79.4 µM [inhibitor, single point]"},
      {"smiles": "O=C(CN1C(=O)CCOc2ccccc21)Nc1cccc(S(=O)(=O)N2CCOCC2)c1", "Potency": "inconclusive: 1.41 µM [inhibitor, single point]"},
      {"smiles": "CCC(=O)c1ccc(OCC(=O)NCC2COc3ccccc3O2)cc1", "note": "(stereo unspecified)", "Potency": "inconclusive: 1 µM [inhibitor, partial curve, poor fit]"},
      {"smiles": "Cn1nnnc1SCCCNCc1ccccc1OCc1ccccc1Cl", "activity, negative = inhibition": "inactive: -32.8%"},
      {"smiles": "O=C(c1ccco1)N1CCN(C(=O)C2CC2)CC1", "Potency": "inconclusive: 79.4 µM [inhibitor, partial curve, poor fit]"},
      {"smiles": "O=c1cc(N2CCOCC2)[nH]c(=O)n1-c1ccc(Br)cc1", "Potency": "inconclusive: 25.1 µM [inhibitor, partial curve, poor fit]"},
      {"smiles": "COc1ccc(CN2CCc3nc(SCC(=O)Nc4cc(C)cc(C)c4)[nH]c(=O)c3C2)cc1", "Potency": "inconclusive: 20 µM [inhibitor, partial curve, poor fit]"},
      {"smiles": "O=C(COC(=O)CNC(=O)c1ccc(Cl)cc1)Nc1ncc(C(F)(F)F)cc1Cl", "Potency": "inconclusive: 12.6 µM [inhibitor, partial curve, poor fit]"},
      {"smiles": "CCN(CC)CCNC(=S)Nc1ccc2nc3n(c(=O)c2c1)CCCCC3", "Potency": "inconclusive: 79.4 µM [inhibitor, single point]"},
      {"smiles": "CC(C)(C)n1nc2c(c1NC(=O)c1cc3ccccc3o1)CS(=O)(=O)C2", "Potency": "inconclusive: 50.1 µM [inhibitor, partial curve]"},
      {"smiles": "COCCNC(=S)Nc1ccc(S(=O)(=O)Nc2ncccn2)cc1", "Potency": "inconclusive: 79.4 µM [inhibitor, single point]"},
      {"smiles": "Cc1ccc2oc(=O)c(-c3ccc(O)cc3)c(C)c2c1", "Potency": "inconclusive: 7.08 µM [inhibitor, single point]"},
      {"smiles": "CCn1cnc2cc(NCc3nc4ccccc4n3C)ccc21", "Potency": "active: 2.51 µM"},
      {"smiles": "CCCCCCCCCCCCCCCCOCC(CO)OC(C)=O", "note": "(stereo unspecified)", "activity, negative = inhibition": "inactive: 24.1%"},
      {"smiles": "COC(=O)c1c(NC(=O)C2C3CCC(O3)C2C(=O)O)sc2c1CCCCCC2", "note": "(stereo unspecified)", "Potency": "inconclusive: 17.8 µM [inhibitor, partial curve, poor fit]"},
      {"smiles": "COc1cccc(NC(=O)N2CCN3CCCCC3C2)c1", "note": "(stereo unspecified)", "activity, negative = inhibition": "inactive: -9.83%"},
      {"smiles": "CC(C)(C)c1ccc(OCCCN2CCCC2)cc1", "activity, negative = inhibition": "inactive: 0.0149% [at 102 µM]"},
      {"smiles": "CCN(CC)c1ccc([C@H]2[C@@H]3CCCC[C@]3(O)CCN2CC(=O)NCc2ccco2)cc1", "Potency": "inconclusive: 22.4 µM [inhibitor, single point]"},
      {"smiles": "CN(C)CCCN(C(=O)COc1ccccc1)c1nc2c(F)cccc2s1", "activity, negative = inhibition": "inactive: -46.2% [at 102 µM]"},
      {"smiles": "Fc1cccc(C2NN=C(c3ccccc3)S2)c1", "note": "(stereo unspecified)", "Potency": "inconclusive: 35.5 µM [inhibitor, single point]"},
      {"smiles": "CCn1c2ccccc2c2cc(/C=N/n3cnnc3)ccc21", "activity, negative = inhibition": "inactive: 12.8%"},
      {"smiles": "CCOc1ccccc1NC(=O)Cn1c(=O)n(-c2ccccc2)c(=O)c2oc3ccccc3c21", "Potency": "inconclusive: 6.31 µM [inhibitor, single point]"},
      {"smiles": "C=CC[n+]1c(-c2ccccc2)csc1NC(C)(C)C", "Potency": "inconclusive: 89.1 µM [inhibitor, single point]"},
      {"smiles": "Cc1ccc(NC(=S)N(CCN(C)C)Cc2cccs2)cc1", "Potency": "inconclusive: 31.6 µM [inhibitor, partial curve]"},
      {"smiles": "COC(=O)[C@@]1(Cc2ccc(F)cc2)[C@H]2c3cc(C(=O)N(C)C)n(Cc4ccccc4)c3C[C@H]2CN1C(=O)c1ccccc1", "Potency": "inconclusive: 79.4 µM [inhibitor, single point]"},
      {"smiles": "COc1cc(C2C=C(c3cccs3)Nc3ncnn32)cc(OC)c1OC", "note": "(stereo unspecified)", "Potency": "active: 31.6 µM"},
      {"smiles": "CCN(CC)S(=O)(=O)c1cccc(-c2nnc(SCC(N)=O)n2CCc2ccccc2)c1", "Potency": "inconclusive: 39.8 µM [inhibitor, single point]"}
    ]}
  ]
}
